Measured values: publication PMC10485003, “Antibiotic hyper-resistance in a class I aminoacyl-tRNA synthetase with altered active site signature motif” (Nature Communications, 2023)
Several values for one entry are separate records, joined by “and”; a condition that tells them apart may be missing. Equal entries are not always repeated. Where two headings read alike, the source gives them in different places. Further values from the same series stand in other lists.

Target: T1, mut-HVGH DrIleRS2 (Deinococcus radiodurans, UniProt Q9RUP8, A59H/H61G/L60V)
T1 construct: hexa-histidine tag (pET28b(+)) (N); made in house; host or cells: E. coli BL21(DE3)
T1 sequence (Q9RUP8 1-1078 A59H/L60V/H61G): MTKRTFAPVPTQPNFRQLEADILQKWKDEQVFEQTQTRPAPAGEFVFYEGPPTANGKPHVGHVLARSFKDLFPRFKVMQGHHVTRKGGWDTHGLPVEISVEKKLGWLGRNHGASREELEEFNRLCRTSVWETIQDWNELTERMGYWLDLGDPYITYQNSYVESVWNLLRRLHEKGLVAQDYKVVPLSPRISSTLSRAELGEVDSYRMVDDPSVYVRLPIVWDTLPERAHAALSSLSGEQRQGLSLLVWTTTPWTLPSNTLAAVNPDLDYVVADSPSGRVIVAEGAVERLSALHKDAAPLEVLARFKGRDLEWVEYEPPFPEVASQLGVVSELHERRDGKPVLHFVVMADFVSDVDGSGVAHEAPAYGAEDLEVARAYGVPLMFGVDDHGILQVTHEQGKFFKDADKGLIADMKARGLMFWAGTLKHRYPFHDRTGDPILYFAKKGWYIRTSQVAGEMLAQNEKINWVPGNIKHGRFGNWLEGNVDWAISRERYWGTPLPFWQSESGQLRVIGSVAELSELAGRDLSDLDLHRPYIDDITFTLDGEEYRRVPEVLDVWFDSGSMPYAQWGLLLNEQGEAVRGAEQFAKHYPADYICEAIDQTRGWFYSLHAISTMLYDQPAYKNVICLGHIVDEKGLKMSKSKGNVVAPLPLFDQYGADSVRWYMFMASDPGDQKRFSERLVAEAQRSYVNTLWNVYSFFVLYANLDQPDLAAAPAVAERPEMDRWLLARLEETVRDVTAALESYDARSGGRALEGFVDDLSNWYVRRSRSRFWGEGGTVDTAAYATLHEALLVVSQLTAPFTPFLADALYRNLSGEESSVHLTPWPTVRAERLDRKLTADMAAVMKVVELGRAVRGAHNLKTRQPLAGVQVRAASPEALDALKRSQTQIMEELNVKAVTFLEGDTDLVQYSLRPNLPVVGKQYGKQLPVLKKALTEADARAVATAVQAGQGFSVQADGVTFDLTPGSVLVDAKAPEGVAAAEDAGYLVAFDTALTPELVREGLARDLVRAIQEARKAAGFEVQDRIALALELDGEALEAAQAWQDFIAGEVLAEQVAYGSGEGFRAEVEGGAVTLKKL
Assay type: biochemical
Method: L-Ile and ATP concentrations ranged from 1/10 KM to 10 KM values. When measuring the KI towards one of the substrates, the other was held in saturation (concentrations at least 10 KM). The aliquots of the reaction mixture (1–2.5 μl) were quenched in 2 volumes of 500 mM NaOAc pH = 4.5, 0.1% SDS, and formed ^32P-ATP was separated from the remaining ^32P-PPi by thin-layer chromatography on Polygram CEL 300 PEI UV254 TLC plates (Macherey-Nagel, cat: 801063) using 750 mM KH2PO4 pH=3.5, 4 M urea buffer. Visualization and quantification of the signals was performed using a Typhoon Phosphoimager 5 (General Electric) and accompanying ImageQuant™ TL software (SV: 10.2). The kinetic constants were determined using a global fit option of the competitive inhibition model of GraphPad Prism 6 software (SV: 6.01). All experiments were performed in triplicates. The kcat was determined by dividing the maximal velocity, VM, with the used enzyme concentration. […]
variable substrate (ATP or Ile) was varied in the range of 0.1 KM to 10 KM. The other substrate (Ile or ATP) was kept in excess at 5 to 10 KM. Data were globally fitted to the competitive inhibition model using GraphPad prism 6.01 for Windows software. The values represent the average value ± SD of three independent experiments. Source data are provided as a Source Data file.
(1 picture or pasted object on this page, not shown here)

`C/C(=C\C(=O)OCCCCCCCCC(=O)O)C[C@@H]1OC[C@H](C[C@@H]2O[C@H]2[C@@H](C)[C@H](C)O)[C@@H](O)[C@H]1O` [mupirocin] was tested, and the initial velocity vo (c(mupirocin) 5.0 μM, c(ATP) 0.5 mM) was 0.03327 mM/min and 0.03484 mM/min and 0.03458 mM/min, the initial velocity vo (c(mupirocin) 5.0 μM, c(ATP) 1.0 mM) was 0.04514 mM/min and 0.0474 mM/min and 0.04561 mM/min and the initial velocity vo (c(mupirocin) 5.0 μM, c(ATP) 2.5 mM) was 0.05674 mM/min and 0.0588 mM/min and 0.05907 mM/min. For the same molecule, the initial velocity vo (c(mupirocin) 5.0 μM, c(ATP) 5.0 mM) was 0.06469 mM/min and 0.06292 mM/min and 0.06379 mM/min, the initial velocity vo (c(mupirocin) 5.0 μM, c(ATP) 10.0 mM) was 0.06774 mM/min and 0.06959 mM/min and 0.07015 mM/min and the initial velocity vo (c(mupirocin) 5.0 μM, c(Ile) 5.0 μM) was 0.0129 mM/min and 0.01075 mM/min and 0.01073 mM/min. For the same molecule, the initial velocity vo (c(mupirocin) 5.0 μM, c(Ile) 10.0 μM) was 0.01995 mM/min and 0.01847 mM/min and 0.01868 mM/min, the initial velocity vo (c(mupirocin) 5.0 μM, c(Ile) 25.0 μM) was 0.03629 mM/min and 0.03521 mM/min and 0.03567 mM/min and the initial velocity vo (c(mupirocin) 5.0 μM, c(Ile) 50.0 μM) was 0.0469 mM/min and 0.04783 mM/min and 0.04766 mM/min. The initial velocity vo (c(mupirocin) 5.0 μM, c(Ile) 100.0 μM) was 0.05712 mM/min and 0.05672 mM/min and 0.05643 mM/min, the initial velocity vo (c(mupirocin) 5.0 μM, c(Ile) 250.0 μM) was 0.06618 mM/min and 0.06896 mM/min and 0.0659 mM/min and the initial velocity vo (c(mupirocin) 10.0 μM, c(ATP) 0.5 mM) was 0.02937 mM/min and 0.02803 mM/min and 0.03007 mM/min. The initial velocity vo (c(mupirocin) 10.0 μM, c(ATP) 1.0 mM) was 0.04219 mM/min and 0.04308 mM/min and 0.04326 mM/min, the initial velocity vo (c(mupirocin) 10.0 μM, c(ATP) 2.5 mM) was 0.05586 mM/min and 0.05467 mM/min and 0.05833 mM/min and the initial velocity vo (c(mupirocin) 10.0 μM, c(ATP) 5.0 mM) was 0.06405 mM/min and 0.06224 mM/min and 0.06515 mM/min. The initial velocity vo (c(mupirocin) 10.0 μM, c(ATP) 10.0 mM) was 0.06656 mM/min and 0.06609 mM/min and 0.06838 mM/min, the initial velocity vo (c(mupirocin) 10.0 μM, c(Ile) 5.0 μM) was 0.00841 mM/min and 0.00793 mM/min and the initial velocity vo (c(mupirocin) 10.0 μM, c(Ile) 10.0 μM) was 0.01474 mM/min and 0.01242 mM/min and 0.01403 mM/min. For the same molecule, the initial velocity vo (c(mupirocin) 10.0 μM, c(Ile) 25.0 μM) was 0.02679 mM/min and 0.0288 mM/min, the initial velocity vo (c(mupirocin) 10.0 μM, c(Ile) 50.0 μM) was 0.03976 mM/min and 0.04222 mM/min and the initial velocity vo (c(mupirocin) 10.0 μM, c(Ile) 100.0 μM) was 0.05189 mM/min and 0.05281 mM/min and 0.05518 mM/min. For the same molecule, the initial velocity vo (c(mupirocin) 10.0 μM, c(Ile) 250.0 μM) was 0.06307 mM/min and 0.05915 mM/min and 0.06518 mM/min, the initial velocity vo (c(mupirocin) 25.0 μM, c(ATP) 0.5 mM) was 0.0191 mM/min and the initial velocity vo (c(mupirocin) 25.0 μM, c(ATP) 1.0 mM) was 0.03155 mM/min and 0.02933 mM/min and 0.03091 mM/min. For the same molecule, the initial velocity vo (c(mupirocin) 25.0 μM, c(ATP) 2.5 mM) was 0.04534 mM/min and 0.0464 mM/min and 0.04521 mM/min, the initial velocity vo (c(mupirocin) 25.0 μM, c(ATP) 5.0 mM) was 0.05626 mM/min and 0.05591 mM/min and 0.0586 mM/min and the initial velocity vo (c(mupirocin) 25.0 μM, c(ATP) 10.0 mM) was 0.06316 mM/min and 0.0606 mM/min and 0.06102 mM/min. The initial velocity vo (c(mupirocin) 25.0 μM, c(Ile) 5.0 μM) was 0.00447 mM/min and 0.00286 mM/min and 0.00381 mM/min, the initial velocity vo (c(mupirocin) 25.0 μM, c(Ile) 10.0 μM) was 0.00829 mM/min and 0.00542 mM/min and 0.00779 mM/min and the initial velocity vo (c(mupirocin) 25.0 μM, c(Ile) 25.0 μM) was 0.01859 mM/min and 0.01898 mM/min and 0.01914 mM/min. For the same molecule, the initial velocity vo (c(mupirocin) 25.0 μM, c(Ile) 50.0 μM) was 0.03035 mM/min and 0.03048 mM/min and 0.03012 mM/min, the initial velocity vo (c(mupirocin) 25.0 μM, c(Ile) 100.0 μM) was 0.04249 mM/min and 0.0435 mM/min and the initial velocity vo (c(mupirocin) 25.0 μM, c(Ile) 250.0 μM) was 0.05543 mM/min and 0.05579 mM/min and 0.05654 mM/min. The initial velocity vo (c(mupirocin) 50.0 μM, c(ATP) 0.5 mM) was 0.01252 mM/min and 0.01316 mM/min, the initial velocity vo (c(mupirocin) 50.0 μM, c(ATP) 1.0 mM) was 0.02068 mM/min and 0.0206 mM/min and 0.02087 mM/min and the initial velocity vo (c(mupirocin) 50.0 μM, c(ATP) 2.5 mM) was 0.03486 mM/min and 0.03651 mM/min and 0.03535 mM/min. For the same molecule, the initial velocity vo (c(mupirocin) 50.0 μM, c(ATP) 5.0 mM) was 0.04936 mM/min and 0.04894 mM/min and 0.04899 mM/min, the initial velocity vo (c(mupirocin) 50.0 μM, c(ATP) 10.0 mM) was 0.05747 mM/min and 0.05622 mM/min and 0.05873 mM/min and the initial velocity vo (c(mupirocin) 50.0 μM, c(Ile) 10.0 μM) was 0.00515 mM/min and 0.00412 mM/min and 0.00552 mM/min. The initial velocity vo (c(mupirocin) 50.0 μM, c(Ile) 25.0 μM) was 0.01292 mM/min and 0.01386 mM/min and 0.01166 mM/min, the initial velocity vo (c(mupirocin) 50.0 μM, c(Ile) 50.0 μM) was 0.0214 mM/min and 0.02166 mM/min and 0.02104 mM/min and the initial velocity vo (c(mupirocin) 50.0 μM, c(Ile) 100.0 μM) was 0.03443 mM/min and 0.03225 mM/min and 0.03201 mM/min. The initial velocity vo (c(mupirocin) 50.0 μM, c(Ile) 250.0 μM) was 0.05004 mM/min and 0.04981 mM/min and 0.0499 mM/min, the initial velocity vo (c(mupirocin) 100.0 μM, c(ATP) 0.5 mM) was 0.0049 mM/min and 0.00448 mM/min and 0.00457 mM/min and the initial velocity vo (c(mupirocin) 100.0 μM, c(ATP) 1.0 mM) was 0.01134 mM/min and 0.01322 mM/min and 0.0128 mM/min. For the same molecule, the initial velocity vo (c(mupirocin) 100.0 μM, c(ATP) 2.5 mM) was 0.02596 mM/min and 0.02538 mM/min and 0.02608 mM/min, the initial velocity vo (c(mupirocin) 100.0 μM, c(ATP) 5.0 mM) was 0.0379 mM/min and 0.03912 mM/min and 0.038 mM/min and the initial velocity vo (c(mupirocin) 100.0 μM, c(ATP) 10.0 mM) was 0.05029 mM/min and 0.04929 mM/min and 0.05151 mM/min. The initial velocity vo (c(mupirocin) 100.0 μM, c(Ile) 5.0 μM) was 0.00154 mM/min and 0.00159 mM/min, the initial velocity vo (c(mupirocin) 100.0 μM, c(Ile) 10.0 μM) was 0.00291 mM/min and 0.00285 mM/min and the initial velocity vo (c(mupirocin) 100.0 μM, c(Ile) 25.0 μM) was 0.00712 mM/min and 0.0073 mM/min and 0.00695 mM/min. For the same molecule, the initial velocity vo (c(mupirocin) 100.0 μM, c(Ile) 50.0 μM) was 0.01325 mM/min and 0.01344 mM/min and 0.01293 mM/min, the initial velocity vo (c(mupirocin) 100.0 μM, c(Ile) 100.0 μM) was 0.02202 mM/min and 0.02146 mM/min and the initial velocity vo (c(mupirocin) 100.0 μM, c(Ile) 250.0 μM) was 0.0379 mM/min and 0.03732 mM/min and 0.03625 mM/min.
